B1: chr17:60770872:60770873:+_ENSG00000011028_ENST00000303375|hu_hu|hu_hu_hu_mus_True|98_98 (ssRNA)
RNA: GGGAGUUCUACAGUCCGACGAUCUCUUUAAAAAAAAUUCCUUUUUUACAAACAAUAAUAGCACAUUUCGAGAAUCAAGAACUACAAUAGAGGGUCCGCUUUGAGUUUUUGUUCACAUCGUCCUGCACUGGGACACGGGGACUGCAACAGAGGAUUGAGCAUCA
B2: chr16:45382771:45382772:-_ENSMUSG00000022661_ENSMUST00000163230|mus_mus|mus_mus_mus_hu_True|8_88 (ssRNA)
RNA: GGGAGUUCUACAGUCCGACGAUCCUGGGUCAUGUUAUAAGACAAAUGGAUAGGGAGGGCAUGCUUCUCAAAAAAUGUGAGCUAUUGUCUAAGACUAACAAUAUUUAUCUAGCUAUAAAAAUAAGUUUUAAAUGGACGUUAAGACAACAGAGGAUUGAGCAUCA
B3: chr7:135612270:135612271:-_ENSG00000105887_ENST00000393085|hu_mus|hu_hu_hu_mus_False|18_58 (ssRNA)
RNA: GGGAGUUCUACAGUCCGACGAUCGUUUUUUUCUGAGAUGUUAAAUAGUACUUCAGUGGAAAACAAAACUUAACCUUUCGCUAAUGCGUGUUGUACCAAAAGCAGACAUUUUAGCUUGCUUCCUUUAAAAAUAUUAACAUUAAGCAACAGAGGAUUGAGCAUCA
B4: chr16:75203323:75203324:+_ENSG00000184517_ENST00000393430|hu_mus|motif|central (ssRNA)
RNA: GGGAGUUCUACAGUCCGACGAUCAAGUGGUUCCCCAAAUCCACCACACCCGUCUCCUUUCUUUCUUACACAGUUUCGGCUGCGGAGUAAGUCUGAAUUGUACUUCAAAGUUUUUUCAUAUAAAUCAUAUUUAUAGGGAACUUGCAACAGAGGAUUGAGCAUCA
B5: chr2:52995849:52995850:-_ENSMUSG00000061136_ENSMUST00000076313|mus_hu|FALSE|FALSE (ssRNA)
RNA: GGGAGUUCUACAGUCCGACGAUCACAGAGAACAAAAUCUUAUCACCUGUGCCUUCAGACUGUCAAGUAUCUUUCUAGCAACUAAAUCCCAUUUGAUGGGAUCCUGAAAGGUAGACAAAGGAUCACAGUCACUUAAGUUACAUCCAACAGAGGAUUGAGCAUCA
B6: chr5:128440902:128440903:+_ENSG00000066583_ENST00000173527|hu_mus|FALSE|FALSE (ssRNA)
RNA: GGGAGUUCUACAGUCCGACGAUCUUGAACGGUGCUGCCAAGUCCUUUGGGGUAUUGUUCCGUUAUGAUAACUGGAAUCCCUAAGAUCCGAGCUCCUUGCAACAGUCUCUGUCCCACACUAAUGAUGUCCCCAAAGUAUUUGAUCAACAGAGGAUUGAGCAUCA
B7: 59919957_59925198_2102_CDS_ENSG00000134444_ENST00000256858|human|control|control (ssRNA)
RNA: GGGAGUUCUACAGUCCGACGAUCGGAGCUACGGAUUUCUUUAGGAAGGUAAGGUGCCAGUGCUCCACAGGAUUCUGCCACAAGCAGUCGUCUUUCUGGGUAUUUGUGAUUAAUCUGUUCCCAACACUGUGGUAAAAGUUCAGCCAACAGAGGAUUGAGCAUCA
B8: chr16:45382771:45382772:-_ENSMUSG00000022661_ENSMUST00000163230|mus_mus|mus_mus_mus_hu_True|48_108 (ssRNA)
RNA: GGGAGUUCUACAGUCCGACGAUCCUGAGUGUUAUUGUAAGACAAAUGGACAGGGAGGGCAUGCUUCUCAAAAAAUGUGAGCUAUUGACUAAGACUAACAAUAUUUAUCUAGCUAUAAAAAUAAGUUAAAUGAAUAAGUUAAGACAACAGAGGAUUGAGCAUCA
B9: chr5:132424181:132424182:+_ENSG00000170606_ENST00000304858|hu_hu|motif|central (ssRNA)
RNA: GGGAGUUCUACAGUCCGACGAUCGGCACACUGCAAUGCACAGCCUCGAGUGACAGCUUCAUCAGCAUUUAAUGUUGUACGGAGUUCUUUACCGAAAAAUUUGCUGAUCUUCUCUUUUACCGCAGGGAUUCGUGUAGCACCACCCAACAGAGGAUUGAGCAUCA
B10: chr2:207631934:207631935:+_ENSG00000118246_ENST00000403094|hu_mus|motif|central (ssRNA)
RNA: GGGAGUUCUACAGUCCGACGAUCCUCUUGUCUUCAGAUAUCCUUUUGGCAAUUAUCCACAUUGCUAAGAAAUAGUUACGGCCAGGAAAUGUAGGUGCUUUUGAAAAUGUGUCCAGCACAUCACUCAGAGAGUUACACUCCUGGCAACAGAGGAUUGAGCAUCA
B11: chr4:110743517:110743518:+_ENSG00000109534_ENST00000226796|hu_hu|FALSE|FALSE (ssRNA)
RNA: GGGAGUUCUACAGUCCGACGAUCUUUCUCACCUGGAGGUCGAGGUAAAAACCUCUGCAGUGGCAGCAGCUUAUAUGGGUCUAUAUAAAACUUCUGUAGUUUUUUAAAGGAUGAAGCCUUCAUGUUUUCUGACAACUUAACUGACAACAGAGGAUUGAGCAUCA
B12: chr5:86670034:86670035:+_ENSG00000145715_ENST00000456692|hu_hu|motif|central (ssRNA)
RNA: GGGAGUUCUACAGUCCGACGAUCUUCUGACCAUACUGGGUUUUGCCCUUCCCUUGCAUGAGUUUUUGCUACUUGGACACGGUUCAGGUAGAUGUUACAAUAUGGAUUAGUAAAAUGUUUUACUGGGAGUUUAUGGGCUUCUUCCAACAGAGGAUUGAGCAUCA
B13: chr14:78183846:78183847:+_ENSG00000119705_ENST00000557342|hu_hu|hu_hu_hu_mus_False|18_58 (ssRNA)
RNA: GGGAGUUCUACAGUCCGACGAUCUCUCAGAAAUCUUUCUUCAUCAGAUGUUUGAGCUCCGUGCAAAGCCUUUGCUCUUCUAGUGUGAACGUGGAUCUAUGGGAGGGAAAGCACUGUAUUUUCCUGUAAUUUUUUUUUUAAAGACAACAGAGGAUUGAGCAUCA
B14: chr2:64119684:64119685:-_ENSG00000143952_ENST00000409558|hu_hu|motif|central (ssRNA)
RNA: GGGAGUUCUACAGUCCGACGAUCACAUCGAAAGUAACUUAAAAACAAGGAUCCAAGGGGGCCAUACUUCAUAUGUUAUCGGAAUGUUAAUAUGAGAACUCAAAAGUAGGCAGAUUAUAUGAAUACAUAUUCUUACCUCUGCUACAACAGAGGAUUGAGCAUCA

The list shows a part of the results.

In this assay the target is T1, UNK ZnF1-3 (human, UniProt Q9C0B0 31-174).
T1 sequence: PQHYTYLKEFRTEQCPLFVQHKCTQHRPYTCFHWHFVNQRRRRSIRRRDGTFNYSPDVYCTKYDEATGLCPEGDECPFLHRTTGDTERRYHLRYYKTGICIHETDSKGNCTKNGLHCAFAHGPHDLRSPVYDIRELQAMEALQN
The assay is described as follows: nsRBNS (natural sequence RNA bind-n-seq); RBNS binding buffer (assumed for nsRBNS): 25 mM Tris pH 7.5, 150 mM KCl, 3 mM MgCl2, 0.01% Triton X-100, 500 ug/ml BSA, 20 U/ml SUPERase-In, 4 C; UNK is unkempt and MSI1 is Musashi-1; names of the RNAs are library labels; protein concentration not given here; high values mean tight binding.
As to B1, the binding signal was 1.17 enrichment R.

In the case of B2, the binding signal was 3.27 enrichment R.

B3 yielded a binding signal of 0.613 enrichment R.

Molecule B4 returned a binding signal of 0.958 enrichment R.

Molecule B5 came in with a binding signal of 1.24 enrichment R.

As to B6, the binding signal came to 0.721 enrichment R.

With B7, the binding signal came to 1.58 enrichment R.

With B8, the binding signal turned out to be 1 enrichment R.

As for B9, the binding signal is 1.44 enrichment R.

The molecule B10 displayed a binding signal of 1.02 enrichment R.

On to B11, for which the binding signal was determined as 0.858 enrichment R.

In turn, B12 had a binding signal of 0.485 enrichment R.

Molecule B13 came in with a binding signal of 0.867 enrichment R.

For B14, the binding signal came out at 1.25 enrichment R.

The values above are taken from publication PMC12136788.
